Test results from publication PMC6212790.
This is one part of the list. At the low end of the ranking the order means little.
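Further: rank score from −0.5 (least bound) to 0.5 (best bound).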

What follows are sequences tested against T1, GST-Rok (full length) (UniProt O34857) (assay: protein binding microarray). Conditions: Rok is a gene silencer of Bacillus subtilis; high values mean tight binding; most listed sequences are background and not binding sites; double strand, one strand shown.
T1 sequence: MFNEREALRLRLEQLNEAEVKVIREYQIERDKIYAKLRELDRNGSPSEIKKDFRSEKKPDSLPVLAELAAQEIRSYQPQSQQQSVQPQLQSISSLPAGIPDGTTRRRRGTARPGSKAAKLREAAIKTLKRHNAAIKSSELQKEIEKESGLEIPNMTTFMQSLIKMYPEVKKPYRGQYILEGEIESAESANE
Work on TGAATTAA yielded a binding signal of 0.172 E-score. CACCACAC showed a binding signal of -0.0674 E-score. Work on TCCCATCA yielded a binding signal of 0.00399 E-score. Sequence GCCCAAAC has a binding signal of -0.242 E-score. With AGGGATTA the binding signal was -0.121 E-score. With GATGTCTA the binding signal was 0.0895 E-score. For GAAGGACA, the binding signal was -0.186 E-score. Sequence GTGCGCCA has a binding signal of -0.323 E-score. CAGGGCGG showed a binding signal of -0.249 E-score. ACATGACA showed a binding signal of 0.0938 E-score. Work on GCCGCAGC yielded a binding signal of -0.363 E-score. CAGGTTGG was tested, and the binding signal was -0.0917 E-score. Work on TGTTTCAA yielded a binding signal of 0.00567 E-score. ATTTAGTC gave a binding signal of 0.104 E-score. Sequence CGAACACG has a binding signal of -0.162 E-score. With GATAAGGC the binding signal was -0.0522 E-score. Sequence CGATGATA has a binding signal of 0.198 E-score. For GACTACAC, the binding signal was 0.0505 E-score. Work on CAATGTTC yielded a binding signal of 0.0131 E-score. CTAGAACA was tested, and the binding signal was 0.146 E-score. With CTCTCGGC the binding signal was -0.188 E-score. In the case of AGATTATC, the binding signal is reported as 0.263 E-score. In the case of CTTGGGTC, the binding signal is reported as -0.189 E-score. Work on ATCATGTC yielded a binding signal of 0.00173 E-score. ACCCTTGC gave a binding signal of -0.199 E-score. With GCCTCTCC the binding signal was -0.216 E-score. For AGTGGCTG, the binding signal was -0.0481 E-score. In the case of GCAGTCAA, the binding signal is reported as -0.155 E-score. TCCACCAA showed a binding signal of -0.0927 E-score. Sequence AAGTAGGA has a binding signal of 0.119 E-score. With CGGCTTAC the binding signal was -0.19 E-score. Work on AGCTTTTG yielded a binding signal of 0.043 E-score. AGACGTCT gave a binding signal of 0.121 E-score. For ATAGCGAG, the binding signal was -0.0541 E-score. ACTATAAA gave a binding signal of 0.341 E-score. Work on AACCTGGA yielded a binding signal of -0.158 E-score. With CTGTCGTC the binding signal was -0.262 E-score. In the case of CCCATTTA, the binding signal is reported as 0.0192 E-score. In the case of CGGGAGTC, the binding signal is reported as -0.207 E-score. TACCAAGA gave a binding signal of 0.0552 E-score. AGTTTGTC was tested, and the binding signal was 0.0187 E-score. In the case of TACTCAAA, the binding signal is reported as 0.0977 E-score. AAACTACA gave a binding signal of 0.408 E-score. CGAGACAA showed a binding signal of 0.0302 E-score. In the case of ACACATTA, the binding signal is reported as 0.207 E-score. Work on CCCGCATC yielded a binding signal of -0.367 E-score. ATGTTGGG showed a binding signal of 0.0372 E-score. CATGATCG gave a binding signal of -0.03 E-score. With CAAAACTC the binding signal was 0.0709 E-score. CAAATTGG gave a binding signal of -0.14 E-score. AATTGTAT was tested, and the binding signal was 0.294 E-score. Work on CAGTTGCC yielded a binding signal of -0.231 E-score. For GATCCATC, the binding signal was -0.00519 E-score. In the case of GCCACAAC, the binding signal is reported as -0.107 E-score. In the case of CAAGAATC, the binding signal is reported as 0.0327 E-score. In the case of AGCTCAGC, the binding signal is reported as -0.249 E-score. In the case of ATACAATC, the binding signal is reported as 0.192 E-score. Work on CGGGTCGC yielded a binding signal of -0.26 E-score. For GAGGTGAC, the binding signal was -0.277 E-score. Work on GGAGTCAC yielded a binding signal of -0.162 E-score. Sequence ATGACGAG has a binding signal of -0.0997 E-score. Sequence ATTAGTCA has a binding signal of 0.27 E-score. Sequence CATTCCGC has a binding signal of -0.201 E-score. CCATGTCA gave a binding signal of -0.00926 E-score. TCGTAAAA was tested, and the binding signal was 0.208 E-score. AGACGCAG showed a binding signal of -0.117 E-score. TGACTAAA was tested, and the binding signal was 0.0431 E-score. With CTTTCGCC the binding signal was -0.163 E-score. CGAGCCTC gave a binding signal of -0.29 E-score. With AATAGGGT the binding signal was -0.0637 E-score. GTTACCCA showed a binding signal of 0.166 E-score. ACGACGTA showed a binding signal of -0.011 E-score. In the case of CTTCACTC, the binding signal is reported as -0.109 E-score. With CCATTGAG the binding signal was 0.0196 E-score. With AATTCCGT the binding signal was -0.114 E-score. For CATCGATG, the binding signal was -0.0477 E-score. In the case of CTCGGCCC, the binding signal is reported as -0.327 E-score. For GAACGGGC, the binding signal was -0.23 E-score. Sequence AGAAATGA has a binding signal of 0.0467 E-score. AAATAAAC gave a binding signal of 0.215 E-score. Work on TAAAAAAA yielded a binding signal of 0.216 E-score. For AGAGCGAC, the binding signal was -0.238 E-score. Sequence AGCGTGGC has a binding signal of -0.207 E-score. GACATATC was tested, and the binding signal was 0.0777 E-score. For ACCGTCCG, the binding signal was 0.00695 E-score. Sequence ACTAATCA has a binding signal of 0.154 E-score. In the case of GTTAACGA, the binding signal is reported as 0.241 E-score. AACTAGGT was tested, and the binding signal was 0.361 E-score. With CGAAGGTC the binding signal was -0.263 E-score. GCGTTAAA gave a binding signal of -0.179 E-score. For CCTCATGC, the binding signal was -0.245 E-score. For CACGCATA, the binding signal was -0.0673 E-score. AAGAGGGA was tested, and the binding signal was -0.294 E-score. In the case of AGTGAGCC, the binding signal is reported as -0.174 E-score. Sequence AATGATAT has a binding signal of 0.255 E-score. For GTCGACGA, the binding signal was -0.144 E-score. AGCAATAG was tested, and the binding signal was 0.25 E-score. ATGTGGAG showed a binding signal of 0.0655 E-score. With AACCGGGT the binding signal was -0.14 E-score. Work on AGCCCGCC yielded a binding signal of -0.368 E-score. Sequence AACCTAAC has a binding signal of 0.0219 E-score. For AAATCGAT, the binding signal was 0.0901 E-score. For GTAGGTAA, the binding signal was 0.314 E-score. Sequence AGCGCCGG has a binding signal of -0.232 E-score. For TACCGCGA, the binding signal was 0.126 E-score. Work on CCGATTGC yielded a binding signal of 0.0643 E-score. In the case of CAATATCC, the binding signal is reported as 0.125 E-score. CGTGTGAC was tested, and the binding signal was -0.115 E-score. ACCCAGAG was tested, and the binding signal was -0.24 E-score. CCGTCTAA gave a binding signal of -0.0301 E-score. ACGTGCTA gave a binding signal of 0.0361 E-score. With CAGCTCGG the binding signal was -0.00356 E-score. Sequence GCCCGCAA has a binding signal of -0.263 E-score. For AGCCTGGC, the binding signal was -0.364 E-score. AAATGAAA showed a binding signal of 0.167 E-score. ACCAGCGT showed a binding signal of -0.18 E-score. For CTCTGTAA, the binding signal was 0.13 E-score. AGCGATCG gave a binding signal of -0.243 E-score. With AGGTAAGA the binding signal was 0.0529 E-score. Sequence AATATTAT has a binding signal of 0.208 E-score. CCTCTTAC showed a binding signal of -0.169 E-score. For CTGTACGA, the binding signal was 0.139 E-score. CTCATCCA showed a binding signal of 0.013 E-score. In the case of AAGCTGTC, the binding signal is reported as -0.105 E-score. TATAAAGA was tested, and the binding signal was 0.124 E-score. Work on AGATCTAG yielded a binding signal of 0.167 E-score. In the case of GGAGTAGA, the binding signal is reported as 0.0421 E-score. GCTAGAGA gave a binding signal of 0.0153 E-score. With AGTCGATA the binding signal was 0.178 E-score. GCAGAGTA was tested, and the binding signal was -0.152 E-score. With CGGTAATA the binding signal was 0.372 E-score. Work on AACAGGCC yielded a binding signal of -0.11 E-score. With GATACATA the binding signal was 0.388 E-score. In the case of GCCAGGCA, the binding signal is reported as -0.269 E-score. Sequence CCAACTCA has a binding signal of -0.106 E-score. Sequence ACAATCAC has a binding signal of 0.118 E-score. Work on ATAAGCTG yielded a binding signal of -0.0404 E-score. In the case of ACAAGTAC, the binding signal is reported as 0.196 E-score. TCAGAACA gave a binding signal of 0.0757 E-score. With ACCATCTA the binding signal was 0.351 E-score. Work on GTGTCCCA yielded a binding signal of -0.229 E-score. AACGTAAG gave a binding signal of 0.0618 E-score. For GGGCTTGA, the binding signal was -0.268 E-score. Sequence GGACTTTA has a binding signal of -0.192 E-score. For ACGTAAAG, the binding signal was 0.0236 E-score. ATCTGAAC showed a binding signal of 0.0438 E-score. For AACGTAAA, the binding signal was 0.0829 E-score. With ATAGGCGG the binding signal was -0.11 E-score. With GGTGCTTA the binding signal was -0.177 E-score. ACAAGTAG was tested, and the binding signal was 0.254 E-score. In the case of ACGCCGGC, the binding signal is reported as -0.271 E-score. In the case of GCCGAGGA, the binding signal is reported as -0.37 E-score. CATTTCCG showed a binding signal of -0.115 E-score. Work on ACATATGT yielded a binding signal of 0.401 E-score. ACTGGTTG was tested, and the binding signal was 0.107 E-score. Work on TCAGAAGA yielded a binding signal of -0.0825 E-score. For GCGAAAAA, the binding signal was 0.0852 E-score. ACTGCTTG showed a binding signal of -0.044 E-score. Sequence AATGTGCC has a binding signal of 0.0696 E-score. Sequence CGTCGGCA has a binding signal of -0.211 E-score. TACAACCA gave a binding signal of 0.132 E-score. Sequence GCCAAGAA has a binding signal of -0.0508 E-score. GCGCTTCC gave a binding signal of -0.171 E-score. AGACTGCT was tested, and the binding signal was -0.0678 E-score. Work on CATCCGGG yielded a binding signal of -0.0787 E-score. ACTAGCTA showed a binding signal of 0.347 E-score. With GCCCCAGC the binding signal was -0.441 E-score. CTCGCCGC showed a binding signal of -0.198 E-score. With AACCTGCG the binding signal was -0.0799 E-score. CCGGCGTC was tested, and the binding signal was -0.252 E-score. CATTCAGA gave a binding signal of 0.0074 E-score. With ATAACCAT the binding signal was 0.115 E-score.
